# Results published in PubChem BioAssay AID1468 (National Center for Advancing Translational Sciences (NCATS), 2008).
# Out of some 280,000 compounds screened, about 1,100 (0.39%) were called active. The inconclusive results got no clear call from the source; some entries with a clear call stand among them for comparison. Calls follow the shape of the dose curve; as a rule, active = well fitted inhibition curve with a large enough effect; inconclusive = small, poorly fitted or top-dose-only effect, or effect the other way; inactive = flat fitted curve, though single readings scatter. No potency is given beside an inconclusive call; the fits are too rough.
# Target: Microtubule-associated protein tau (Homo sapiens) (UniProt P10636)
# Assay: qHTS for Inhibitors of Tau Fibril Formation, Fluorescence Polarization; also: nearly all actives have a fitted effect of over 55% in size
# Settings: K18 P301L tau heparin fibrillization, Alexa594 FP, 6 h; series mostly up to 57.7 µM; activity, negative = inhibition: at the top concentration
# Outline: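 Heparin (20 uM) drove fibril formation of recombinant tau K18 P301L, 15 uM unlabeled with 0.24 uM Alexa 594 label, for 6 hr at 37 C in 100 mM sodium acetate pH 7. Fluorescence polarization (555/632 nm) read 1 hr after 30 uM ThT.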
# % is scaled to controls: 0 for no effect and ±100 for the full control effect; potency is read from the fitted curve at half-maximal effect; tags tell the direction and shape of the fitted curve.
# UniProt P10636, sequence (P10636 whole entry, looked up): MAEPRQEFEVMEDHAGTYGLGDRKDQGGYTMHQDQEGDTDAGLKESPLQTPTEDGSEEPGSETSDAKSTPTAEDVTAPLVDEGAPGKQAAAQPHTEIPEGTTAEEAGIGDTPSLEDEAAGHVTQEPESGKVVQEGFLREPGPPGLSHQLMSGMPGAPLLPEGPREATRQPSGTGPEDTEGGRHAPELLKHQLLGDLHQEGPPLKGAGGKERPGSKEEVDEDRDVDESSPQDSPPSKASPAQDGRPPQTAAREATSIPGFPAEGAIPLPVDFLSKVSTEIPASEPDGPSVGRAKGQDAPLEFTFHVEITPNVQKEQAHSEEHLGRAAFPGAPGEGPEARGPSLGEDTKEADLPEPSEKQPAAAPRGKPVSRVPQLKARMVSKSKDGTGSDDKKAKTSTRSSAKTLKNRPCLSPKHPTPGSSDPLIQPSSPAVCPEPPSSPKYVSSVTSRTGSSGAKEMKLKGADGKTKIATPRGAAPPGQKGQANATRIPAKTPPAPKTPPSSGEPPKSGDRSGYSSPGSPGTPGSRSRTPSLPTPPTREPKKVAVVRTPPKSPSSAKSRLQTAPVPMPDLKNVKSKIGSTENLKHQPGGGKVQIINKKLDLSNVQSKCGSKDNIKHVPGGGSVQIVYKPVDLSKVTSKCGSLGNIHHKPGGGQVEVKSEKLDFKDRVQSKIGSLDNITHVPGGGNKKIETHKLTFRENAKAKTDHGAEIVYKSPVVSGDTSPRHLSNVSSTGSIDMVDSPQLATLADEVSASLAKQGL
SMILES,Potency,"activity, negative = inhibition"
O=C(Nc1nc(-c2ccc(Cl)s2)cs1)c1ccccc1,"inconclusive [inhibitor, single point]",–
CC(C)Cc1nnc(NC(=O)CSc2nc(O)c(-c3ccccc3)c(=O)[nH]2)s1,"inconclusive [inhibitor, single point]",–
COC(=O)c1c(NC(=O)CCC(=O)O)sc(Cc2ccccc2)c1C,–,inactive: 7.53%
CCc1ccc(NS(=O)(=O)c2ccc3[nH]cc(C(=O)NCCc4cccc(C)c4)c(=O)c3c2)cc1,"inconclusive [inhibitor, partial curve]",–
COc1ccc2c(c1)sc1ncc(C(=O)NCc3ccc(Cl)cc3)c(=O)n12,–,inactive: 3.28%
CC1CCC(NC(=O)c2ccc3c(c2)N(Cc2ccccc2F)C(=O)c2ccccc2S3=O)CC1 (stereo not given),"inconclusive [inhibitor, single point]",–
COc1ccc2nc(/N=C(\N)NC(=O)C(C)(C)C)nc(C)c2c1,"inconclusive [inhibitor, partial curve]",–
CC1CCCN(Cc2cn3c(-c4cccc(Br)c4)nnc3s2)C1 (stereo not given),–,inactive: -2.02%
Cc1ccc(NC(=O)COc2ccc(/C=N/NC(=O)CSCc3ccccc3)cc2)cc1,"inconclusive [inhibitor, partial curve]",–
COc1cc(S(=O)(=O)N2CCN(C)CC2)c(OC)cc1Cl,"inconclusive [inhibitor, single point]",–
CC(C)COC(=O)/C(C#N)=C/c1c[nH]c2ccccc12,"inconclusive [inhibitor, full curve]",–
O=C(O)c1ccc(N2CCCCCC2)c(N2C(=O)c3ccccc3C2=O)c1,–,inactive: -1.38%
CO/N=C/C(=N\Nc1ccccc1)C(=O)c1ccccc1,"inconclusive [inhibitor, partial curve, poor fit]",–
Cc1ccc(C)n1-c1nn(S(=O)(=O)c2cccc3cccnc23)c2cccc(F)c12,"inconclusive [inhibitor, partial curve]",–
Cc1cccc(CNC(=O)C2CCN(c3nnc(-n4c(C)ccc4C)s3)CC2)c1,"inconclusive [inhibitor, single point]",–
Cc1cccc(C(=O)N2CCN(c3ccc([N+](=O)[O-])c(N4CCOCC4)c3)CC2)c1,–,inactive: 2.68%
CC1CCN(S(=O)(=O)c2ccc(C(=O)Nc3sccc3C(N)=O)cc2)CC1,"inconclusive [inhibitor, partial curve]",–
CS(=O)(=O)n1nc(OC(=O)c2cc(Br)ccc2Cl)cc1N,"inconclusive [activator, single point]",–
COC(=O)Cn1ncc2c(C)n(Cc3ccccc3)c(C)c2c1=O,"inconclusive [inhibitor, single point]",–
CCCn1c2ccccc2c2cnn(CC(=O)N3CCC(C(=O)OCC)CC3)c(=O)c21,–,inactive: -5.57%
C/C(N)=C(/C#N)C(=O)CSc1nc2ccccc2c(=O)n1Cc1ccc(F)cc1,"inconclusive [inhibitor, single point]",–
CCN1C/C(=C\c2cccc([N+](=O)[O-])c2)C(=O)/C(=C/c2cccc([N+](=O)[O-])c2)C1,"inconclusive [inhibitor, partial curve]",–
Nc1nc2c(c(=O)[nH]1)C(c1ccccc1)C1=C(N2)c2ccccc2C1=O (stereo not given),–,inactive: 6.04%
COc1cc(SC#N)ccc1N=Cc1c(C)[nH]n(-c2cccc3ccccc23)c1=O,"inconclusive [inhibitor, partial curve]",–

SMILES,Potency,"activity, negative = inhibition"
CCC/C(C)=N\Nc1nc2c(c(=O)n(C)c(=O)n2C)n1C,"inconclusive [inhibitor, partial curve]",–
CN(c1ccccc1)S(=O)(=O)c1cccc(NC(=O)CN2CCc3ccccc3C2)c1,–,inactive: 1.18%
N#CC(C#N)=C1C=CC=CN1/C(=C\c1ccco1)C(=O)c1ccccc1,active: 20 µM,–
N#C/C(=C\c1ccccn1)c1nc2ccccc2s1,"inconclusive [inhibitor, single point]",–
Cc1ccccc1-n1c(/C=C/c2c(C)n(C)c3ccccc23)nc2ccccc2c1=O,–,inactive: 3.8%
Cc1ccc(C(=O)NNC(=O)C(C)Sc2nc(N)cc(N)n2)cc1 (stereo not given),–,inactive: 1.46%
CNC(=O)C1CCC(Cn2c(=O)[nH]c3ccsc3c2=O)CC1 (stereo not given),–,inactive: -0.68%
CN(Cc1ccccc1)S(=O)(=O)c1ccc(NC(=S)NC(=O)C2CCCCC2)cc1,"inconclusive [inhibitor, single point]",–
Cc1c(C(=O)N2CCN(Cc3ccc4c(c3)OCO4)CC2)cccc1[N+](=O)[O-],–,inactive: -0.294%
O=C(NCc1ccncc1)C(=O)Nc1nc(C23CC4CC(CC(C4)C2)C3)cs1,"inconclusive [activator, full curve, poor fit]",–
CSc1ccc(CNc2ncc(-c3ccccc3)n2C)cc1,–,inactive: -0.365%
CN1CCN(c2oc(-c3ccc(COc4ccc(Cl)cc4)o3)nc2C#N)CC1,"inconclusive [activator, single point]",–
N#Cc1nc(-c2ccc(COc3ccccc3)o2)oc1NCc1ccccc1,"inconclusive [activator, partial curve]",–
COc1cc(NC(=O)COC(=O)c2cc(S(=O)(=O)N3CCCCC3)ccc2Cl)c(C)cc1[N+](=O)[O-],"inconclusive [inhibitor, single point]",–
CS(=O)(=O)NCCSc1cc(C(F)(F)F)nc2ccccc12,"inconclusive [inhibitor, single point]",–
CNC(=S)Nc1sc2c(c1C(=O)OC)CCC2,"inconclusive [inhibitor, full curve, poor fit]",–
CN(c1ccccc1)S(=O)(=O)c1cccc(NC(=O)CN2CCCc3ccccc32)c1,"inconclusive [activator, single point]",–
CC(Oc1ccc(Cl)cc1)C(=O)NNC(=S)NC(=O)c1ccco1 (stereo not given),–,inactive: -14.6%
Nc1cc(N)nc(SCC(=O)Nc2ccccc2)n1,"inconclusive [inhibitor, single point]",–
CCCOC(=O)c1c(NC(=O)C2c3ccccc3Oc3ccccc32)sc2c1CCC(C)C2 (stereo not given),"inconclusive [inhibitor, partial curve]",–
Cc1cc(C)c(C)c(OCCCn2ccnc2)c1,–,inactive: 3.71%
COc1ccc(N2CCN(C(=O)c3ccc4c(c3)N(Cc3ccc(F)cc3)C(=O)c3ccccc3S4=O)CC2)cc1 (stereo not given),–,inactive: 5.72%
CCN1CCN(C(c2ccccc2)c2sc3nc(-c4ccco4)nn3c2O)CC1 (stereo not given),–,inactive: -5.18%
O=C(N/N=C/c1cccc(OC(=O)c2ccc3c(c2)OCO3)c1)c1cncc(Br)c1,"inconclusive [inhibitor, partial curve]",–

SMILES,Potency,"activity, negative = inhibition"
Cc1nc(-c2cccnc2)sc1C(=O)Nc1ccc(C(F)(F)F)cc1,"inconclusive [inhibitor, partial curve, poor fit]",–
Cc1ccc(-c2cn3cccc(C)c3n2)cc1,–,inactive: -2.48%
COc1cccc(CNC(=O)Cc2ccc(NC(=O)N3CCCCc4ccccc43)cc2)c1OC,"inconclusive [inhibitor, single point]",–
O=C1C2=CC[C@H]3C(=O)N(Cc4ccccc4)C(=O)[C@@H]3[C@@H]2[C@H](O)[C@@H]2O[C@H]12,"inconclusive [inhibitor, partial curve]",–
O=C(c1ccccc1)n1ccc2ccccc21,–,inactive: 4.78%
CCc1nnc(SCc2nc(-c3ccc(OC)c(OC)c3)oc2C)c2cc3sc(C)cc3n12,"inconclusive [activator, partial curve]",–
O=C(CNc1ccccc1)c1ccc([N+](=O)[O-])cc1,"inconclusive [inhibitor, partial curve]",–
CCOC(=O)C1=C(C)N=c2s/c(=C\c3cccn3C)c(=O)n2C1c1cccc(OC)c1OC (stereo not given),–,inactive: -6.6%
Cc1ccc(/C=C/c2onc(C)c2S(=O)(=O)N2CCC(C(=O)NCc3ccc(C)o3)CC2)cc1,"inconclusive [inhibitor, partial curve]",–
Cc1nc(C)c(-c2csc(Nc3cccc(O)c3)n2)s1,"inconclusive [activator, partial curve]",–
Cc1c(/C=N/NC(=O)C(NC(=O)c2ccc3c(c2)OCO3)C(C)C)c2ccccc2n1C (stereo not given),"inconclusive [activator, partial curve, poor fit]",–
Cc1nc(Nc2ccccc2Cl)sc1C(=O)Nc1ccccc1,"inconclusive [activator, partial curve]",–
S=C(Nc1ccc2nc(-c3ccccn3)c(-c3ccccn3)nc2c1)N1CCOCC1,"inconclusive [inhibitor, partial curve]",–
COC(=O)CSC1=C(C#N)C(=O)NC2(CCCCC2)S1,"inconclusive [inhibitor, single point]",–
Cc1ccc(C(=O)CC2(O)C(=O)N(CCc3ccccc3)c3ccc(Cl)cc32)cc1 (stereo not given),–,inactive: 4.54%
Cc1cc(Nc2cccc(C)c2C)n2cnnc2n1,–,inactive: 6.22%
Cn1c(=O)c2c(-c3ccccc3Cl)n(-c3cc(Cl)ccc3O)cc2n(C)c1=O,–,inactive: -2.92%
NC(=O)c1cccc2ccccc12,–,inactive: 9.04%
CCC(Oc1ccccc1)C(=O)Nc1ccsc1C(=O)OC (stereo not given),–,inactive: -15.2%
Clc1cc(Cl)cc(Nc2ncnc(-n3cccc3)n2)c1,"inconclusive [inhibitor, full curve]",–
CCCCCOC(=O)CSc1ncnc2c1sc1nc(N3CCOCC3)c3c(c12)CCCC3,–,inactive: -10.3%
O=C(COc1ccc(F)cc1)Nc1ccc2nc(SCC(=O)N3CCc4ccccc43)sc2c1,"inconclusive [inhibitor, single point]",–
